From paper PMC10796598, “Synaptobrevin2 monomers and dimers differentially engage to regulate the functional trans-SNARE assembly” (Life Science Alliance, 2024)

Legend:
[1] = target: the molecule itself; assay: SDS-PAGE and immunoblot (dimer band); syb2 (WT or mutants) reconstituted in nanodisks (ND3S, ND5S, ND7S, ND5L, ND55L; lipid composition, cholesterol and syt1 varied); Laemmli sample buffer, 95°C 5 min; syb2 antibody; dimer-to-monomer band intensity ratio (D/M)
[2] = target: T1, t-SNARE heterodimers (comprising syntaxin-1a and SNAP-25B) (rat | mouse); assay: SDS-PAGE and immunoblot of the SDS-resistant SNARE complex; syb2 nanodisks (ND5S, ND3S, ND7S, ND5L; WT or mutants) incubated with t-lipo (10:1) overnight at 4°C in 25 mM Hepes–KOH pH 7.4, 100 mM KCl, 2 mM β-mercaptoethanol; samples not boiled; syb2 or SNAP-25B antibody; control heated at 95°C for 30 min; conditions: both partners purified
T1 construct: syntaxin-1a, rat cDNA; SNAP-25B, mouse cDNA; also called t-SNAREs; t-SNARE heterodimers (T); source: bacterial expression as his-tagged proteins at 37°C, purified on Ni-NTA agarose; reconstituted in liposomes (t-lipo); not shown: His tag (heterodimer expressed as his-tagged protein)

B1: synaptobrevin2 (syb2) L99W (natural protein)
chain: not shown
notes: synaptobrevin2 (syb2), rat cDNA; also called ND5S (L99W); source: bacterial expression as GST-tag protein, purified on glutathione Sepharose, eluted with thrombin; reconstituted in nanodisks (ND5S)
Question: Does B1 bind [1]?
Answer: binds

B2: synaptobrevin2 (syb2) C103W (natural protein)
chain: not shown
notes: synaptobrevin2 (syb2), rat cDNA; also called ND5S (C103W); source: bacterial expression as GST-tag protein, purified on glutathione Sepharose, eluted with thrombin; reconstituted in nanodisks (ND5S)
Question: Does B2 bind [1]?
Answer: binds

B3: synaptobrevin2 (syb2) I105A (natural protein)
chain: not shown
notes: synaptobrevin2 (syb2), rat cDNA; also called ND5S(I105A); source: bacterial expression as GST-tag protein, purified on glutathione Sepharose, eluted with thrombin; reconstituted in nanodisks (ND5S)
Question: Does B3 bind [2]?
Answer: binds

B4: synaptobrevin2 (syb2) V101A (natural protein)
chain: not shown
notes: synaptobrevin2 (syb2), rat cDNA; also called ND5S (V101A); source: bacterial expression as GST-tag protein, purified on glutathione Sepharose, eluted with thrombin; reconstituted in nanodisks (ND5S)
Question: Does B4 bind [2]?
Answer: binds
